Assay results taken from article PMC12820563.
The list shows a part of the results. The list includes weakly bound sequences.

These sequences were tested against T1, MBP-FoxP3dN (UniProt Q99JB6) (assay: PD-seq (MBP pull-down with sequencing)). Conditions: 20 mM Tris-HCl pH 7.5, 100 mM NaCl, 1.5 mM MgCl2, 0.4 uM protein, 0.1 uM dsDNA library, 30 min, room temperature, amylose pull-down; high values mean tight binding; double strand, one strand shown.
T1 sequence: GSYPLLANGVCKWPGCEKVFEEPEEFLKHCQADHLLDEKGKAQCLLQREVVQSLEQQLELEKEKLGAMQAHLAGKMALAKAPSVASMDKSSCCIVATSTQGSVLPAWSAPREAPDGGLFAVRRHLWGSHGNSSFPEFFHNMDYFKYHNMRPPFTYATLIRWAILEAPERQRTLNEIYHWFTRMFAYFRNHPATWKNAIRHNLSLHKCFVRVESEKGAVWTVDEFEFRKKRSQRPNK

Row | Sequence | binding signal (RPM ratio (pull-down/input))
1 | GATGATTGTTCTCCCAGCTGATGAATTCGTCTTATCGAGTAAACAAATTTTCCTAATCTTTCTGTTCAAGCGCCATCTAC | 0.611
2 | GATGATTGTTCTCCCAGCTGATGAATTCGTCTCGTCGAGTAAACAAATTTTCCTAATCTTTCTGTTCAAGCGCCATCTAC | 0.425
3 | GATGATTGTTCTCCCAGCTGATGAATTTGACGTATCGAGTAAACAAATTTTCCTAATCTTTCTGTTCAAGCGCCATCTAC | 1.27
4 | GATGATTGTTCTCCCAGCTGATGAATTTGTTGGGTCGAGTAAACAAATTTTCCTAATCTTTCTGTTCAAGCGCCATCTAC | 7.61
5 | GATGATTGTTCTCCCAGCTGATGAATTAGTGTAGTCGAGTAAACAAATTTTCCTAATCTTTCTGTTCAAGCGCCATCTAC | 2.04
6 | GATGATTGTTCTCCCAGCTGATGAATTTACTCAATCGAGTAAACAAATTTTCCTAATCTTTCTGTTCAAGCGCCATCTAC | 0.346
7 | GATGATTGTTCTCCCAGCTGATGAATTCCGTGATTCGAGTAAACAAATTTTCCTAATCTTTCTGTTCAAGCGCCATCTAC | 0.914
8 | GATGATTGTTCTCCCAGCTGATGAATTACCCTAATCGAGTAAACAAATTTTCCTAATCTTTCTGTTCAAGCGCCATCTAC | 0.289
9 | GATGATTGTTCTCCCAGCTGATGAATTCGGTCCTTCGAGTAAACAAATTTTCCTAATCTTTCTGTTCAAGCGCCATCTAC | 0.363
10 | GATGATTGTTCTCCCAGCTGATGAATTTGCCCGATCGAGTAAACAAATTTTCCTAATCTTTCTGTTCAAGCGCCATCTAC | 0.274
11 | GATGATTGTTCTCCCAGCTGATGAATTTCAAGCATCGAGTAAACAAATTTTCCTAATCTTTCTGTTCAAGCGCCATCTAC | 0.69
12 | GATGATTGTTCTCCCAGCTGATGAATTTGTTAGCTCGAGTAAACAAATTTTCCTAATCTTTCTGTTCAAGCGCCATCTAC | 6.55
13 | GATGATTGTTCTCCCAGCTGATGAATTAATCCACTCGAGTAAACAAATTTTCCTAATCTTTCTGTTCAAGCGCCATCTAC | 0.364
14 | GATGATTGTTCTCCCAGCTGATGAATTTGAAGAATCGAGTAAACAAATTTTCCTAATCTTTCTGTTCAAGCGCCATCTAC | 0.169
15 | GATGATTGTTCTCCCAGCTGATGAATTGTTCACATCGAGTAAACAAATTTTCCTAATCTTTCTGTTCAAGCGCCATCTAC | 0.635
16 | GATGATTGTTCTCCCAGCTGATGAATTTGTACTCTCGAGTAAACAAATTTTCCTAATCTTTCTGTTCAAGCGCCATCTAC | 2.81
17 | GATGATTGTTCTCCCAGCTGATGAATTCCACCTATCGAGTAAACAAATTTTCCTAATCTTTCTGTTCAAGCGCCATCTAC | 0.432
18 | GATGATTGTTCTCCCAGCTGATGAATTGTGCGTCTCGAGTAAACAAATTTTCCTAATCTTTCTGTTCAAGCGCCATCTAC | 6.12
19 | GATGATTGTTCTCCCAGCTGATGAATTTAGCCACTCGAGTAAACAAATTTTCCTAATCTTTCTGTTCAAGCGCCATCTAC | 5.21
20 | GATGATTGTTCTCCCAGCTGATGAATTCCATAACTCGAGTAAACAAATTTTCCTAATCTTTCTGTTCAAGCGCCATCTAC | 0.339
21 | GATGATTGTTCTCCCAGCTGATGAATTAGTTAATTCGAGTAAACAAATTTTCCTAATCTTTCTGTTCAAGCGCCATCTAC | 0.745

Row | Sequence | binding signal (RPM ratio (pull-down/input))
22 | GATGATTGTTCTCCCAGCTGATGAATTGGCTAAATCGAGTAAACAAATTTTCCTAATCTTTCTGTTCAAGCGCCATCTAC | 0.25
23 | GATGATTGTTCTCCCAGCTGATGAATTCGAACCGTCGAGTAAACAAATTTTCCTAATCTTTCTGTTCAAGCGCCATCTAC | 0.228
24 | GATGATTGTTCTCCCAGCTGATGAATTATGCCGCTCGAGTAAACAAATTTTCCTAATCTTTCTGTTCAAGCGCCATCTAC | 2.88
25 | GATGATTGTTCTCCCAGCTGATGAATTTGTAACATCGAGTAAACAAATTTTCCTAATCTTTCTGTTCAAGCGCCATCTAC | 1.81
26 | GATGATTGTTCTCCCAGCTGATGAATTTATGATTTCGAGTAAACAAATTTTCCTAATCTTTCTGTTCAAGCGCCATCTAC | 3.51
27 | GATGATTGTTCTCCCAGCTGATGAATTGGAGCATTCGAGTAAACAAATTTTCCTAATCTTTCTGTTCAAGCGCCATCTAC | 4.46
28 | GATGATTGTTCTCCCAGCTGATGAATTACACACCTCGAGTAAACAAATTTTCCTAATCTTTCTGTTCAAGCGCCATCTAC | 0.652
29 | GATGATTGTTCTCCCAGCTGATGAATTACATGGGTCGAGTAAACAAATTTTCCTAATCTTTCTGTTCAAGCGCCATCTAC | 0.388
30 | GATGATTGTTCTCCCAGCTGATGAATTCACCGCTTCGAGTAAACAAATTTTCCTAATCTTTCTGTTCAAGCGCCATCTAC | 0.331
31 | GATGATTGTTCTCCCAGCTGATGAATTTGGACTTTCGAGTAAACAAATTTTCCTAATCTTTCTGTTCAAGCGCCATCTAC | 1.19
32 | GATGATTGTTCTCCCAGCTGATGAATTCGCTTCCTCGAGTAAACAAATTTTCCTAATCTTTCTGTTCAAGCGCCATCTAC | 0.784
33 | GATGATTGTTCTCCCAGCTGATGAATTGGTTAAGTCGAGTAAACAAATTTTCCTAATCTTTCTGTTCAAGCGCCATCTAC | 0.315
34 | GATGATTGTTCTCCCAGCTGATGAATTCCACTACTCGAGTAAACAAATTTTCCTAATCTTTCTGTTCAAGCGCCATCTAC | 0.367
35 | GATGATTGTTCTCCCAGCTGATGAATTTCGTTAATCGAGTAAACAAATTTTCCTAATCTTTCTGTTCAAGCGCCATCTAC | 0.405
36 | GATGATTGTTCTCCCAGCTGATGAATTGAAGTTATCGAGTAAACAAATTTTCCTAATCTTTCTGTTCAAGCGCCATCTAC | 0.604
37 | GATGATTGTTCTCCCAGCTGATGAATTGGAATAGTCGAGTAAACAAATTTTCCTAATCTTTCTGTTCAAGCGCCATCTAC | 0.311
38 | GATGATTGTTCTCCCAGCTGATGAATTGGCGGGTTCGAGTAAACAAATTTTCCTAATCTTTCTGTTCAAGCGCCATCTAC | 0.391
39 | GATGATTGTTCTCCCAGCTGATGAATTTAGCGCGTCGAGTAAACAAATTTTCCTAATCTTTCTGTTCAAGCGCCATCTAC | 1.59
40 | GATGATTGTTCTCCCAGCTGATGAATTATTCAGATCGAGTAAACAAATTTTCCTAATCTTTCTGTTCAAGCGCCATCTAC | 0.24
41 | GATGATTGTTCTCCCAGCTGATGAATTCCTTCAATCGAGTAAACAAATTTTCCTAATCTTTCTGTTCAAGCGCCATCTAC | 0.215
42 | GATGATTGTTCTCCCAGCTGATGAATTTGGCTCTTCGAGTAAACAAATTTTCCTAATCTTTCTGTTCAAGCGCCATCTAC | 0.655

Row | Sequence | binding signal (RPM ratio (pull-down/input))
43 | GATGATTGTTCTCCCAGCTGATGAATTTATGCCGTCGAGTAAACAAATTTTCCTAATCTTTCTGTTCAAGCGCCATCTAC | 1.27
44 | GATGATTGTTCTCCCAGCTGATGAATTTAGCGAGTCGAGTAAACAAATTTTCCTAATCTTTCTGTTCAAGCGCCATCTAC | 0.73
45 | GATGATTGTTCTCCCAGCTGATGAATTACTTACCTCGAGTAAACAAATTTTCCTAATCTTTCTGTTCAAGCGCCATCTAC | 0.414
46 | GATGATTGTTCTCCCAGCTGATGAATTTGCAGGGTCGAGTAAACAAATTTTCCTAATCTTTCTGTTCAAGCGCCATCTAC | 0.849
47 | GATGATTGTTCTCCCAGCTGATGAATTTGTCGCCTCGAGTAAACAAATTTTCCTAATCTTTCTGTTCAAGCGCCATCTAC | 3.03
48 | GATGATTGTTCTCCCAGCTGATGAATTCCGTCGCTCGAGTAAACAAATTTTCCTAATCTTTCTGTTCAAGCGCCATCTAC | 0.441
49 | GATGATTGTTCTCCCAGCTGATGAATTAGGTGGTTCGAGTAAACAAATTTTCCTAATCTTTCTGTTCAAGCGCCATCTAC | 0.919
50 | GATGATTGTTCTCCCAGCTGATGAATTAAGAATGTCGAGTAAACAAATTTTCCTAATCTTTCTGTTCAAGCGCCATCTAC | 0.505
51 | GATGATTGTTCTCCCAGCTGATGAATTGTGGGCTTCGAGTAAACAAATTTTCCTAATCTTTCTGTTCAAGCGCCATCTAC | 0.63
52 | GATGATTGTTCTCCCAGCTGATGAATTGGAGCGGTCGAGTAAACAAATTTTCCTAATCTTTCTGTTCAAGCGCCATCTAC | 0.272
53 | GATGATTGTTCTCCCAGCTGATGAATTGGGGATTTCGAGTAAACAAATTTTCCTAATCTTTCTGTTCAAGCGCCATCTAC | 0.404
54 | GATGATTGTTCTCCCAGCTGATGAATTCTGGGTATCGAGTAAACAAATTTTCCTAATCTTTCTGTTCAAGCGCCATCTAC | 0.634
55 | GATGATTGTTCTCCCAGCTGATGAATTAGGAATATCGAGTAAACAAATTTTCCTAATCTTTCTGTTCAAGCGCCATCTAC | 0.47
56 | GATGATTGTTCTCCCAGCTGATGAATTCGGACAGTCGAGTAAACAAATTTTCCTAATCTTTCTGTTCAAGCGCCATCTAC | 0.285
57 | GATGATTGTTCTCCCAGCTGATGAATTGTGGAATTCGAGTAAACAAATTTTCCTAATCTTTCTGTTCAAGCGCCATCTAC | 0.848
58 | GATGATTGTTCTCCCAGCTGATGAATTGCGAACGTCGAGTAAACAAATTTTCCTAATCTTTCTGTTCAAGCGCCATCTAC | 0.621
59 | GATGATTGTTCTCCCAGCTGATGAATTCTCAAGCTCGAGTAAACAAATTTTCCTAATCTTTCTGTTCAAGCGCCATCTAC | 0.225
60 | GATGATTGTTCTCCCAGCTGATGAATTCCTGTGCTCGAGTAAACAAATTTTCCTAATCTTTCTGTTCAAGCGCCATCTAC | 0.35
61 | GATGATTGTTCTCCCAGCTGATGAATTCGAACGCTCGAGTAAACAAATTTTCCTAATCTTTCTGTTCAAGCGCCATCTAC | 0.31
62 | GATGATTGTTCTCCCAGCTGATGAATTAAGGTCCTCGAGTAAACAAATTTTCCTAATCTTTCTGTTCAAGCGCCATCTAC | 0.423
63 | GATGATTGTTCTCCCAGCTGATGAATTCATTGTCTCGAGTAAACAAATTTTCCTAATCTTTCTGTTCAAGCGCCATCTAC | 2.39
